Results on two molecules are retold here after article PMC4814048.

For assay [1], the target named is T1, MexAM1_META1p1275, C-terminal triple FLAG-tagged (Methylobacterium extorquens AM1) (UniProt C5AYM3).
T1 sequence: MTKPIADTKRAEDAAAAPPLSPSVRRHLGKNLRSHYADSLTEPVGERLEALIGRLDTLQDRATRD
Nature of the assay: co-IP; lysate of M. extorquens AM1 producing C-terminal triple FLAG-tagged NepR or paralogue, in TBS (50 mM Tris-HCl pH 7.4, 150 mM NaCl); anti-FLAG M2 affinity gel, 1 h at room temperature; blot with anti-PhyR serum.

The target in assay [2] is T2, MexAM1_META1p2700, C-terminal triple FLAG-tagged (Methylobacterium extorquens AM1) (UniProt C5ATE1).
T2 sequence: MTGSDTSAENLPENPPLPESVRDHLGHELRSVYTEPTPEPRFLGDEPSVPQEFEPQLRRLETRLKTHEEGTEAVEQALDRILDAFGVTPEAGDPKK
The description is as above.

Assay [3] deals with T3, MexAM1_META2p0735, C-terminal triple FLAG-tagged (Methylobacterium extorquens AM1) (UniProt C5B547).
T3 sequence: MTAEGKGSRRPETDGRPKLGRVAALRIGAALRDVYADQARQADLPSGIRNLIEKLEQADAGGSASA
The description is as above.

The target in assay [4] is T4, NepR, C-terminal triple FLAG-tagged (Methylobacterium extorquens AM1) (UniProt C5AW20).
T4 sequence: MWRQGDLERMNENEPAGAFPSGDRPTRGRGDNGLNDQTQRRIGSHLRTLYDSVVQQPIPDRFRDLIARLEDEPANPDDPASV
The assay is described as above.

Assay [5] concerns the target T5, MexAM1_META1p1275 (putative NepR homologue), bacterial two-hybrid fusion (Methylobacterium extorquens AM1) (UniProt C5AYM3).
T5 sequence: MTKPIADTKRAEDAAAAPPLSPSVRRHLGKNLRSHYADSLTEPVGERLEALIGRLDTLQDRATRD
Nature of the assay: two-hybrid; bacterial two-hybrid in E. coli BTH101; nepR paralogues in pUT18, ecfG paralogues in pKNT25; LB with 1 mM IPTG and 40 μg/ml X-Gal, blue coloration after two days at 28°C; β-galactosidase activity of overnight liquid cultures.

Assay [6] has as its target T6, MexAM1_META1p2700 (putative NepR homologue), bacterial two-hybrid fusion (Methylobacterium extorquens AM1) (UniProt C5ATE1).
T6 sequence: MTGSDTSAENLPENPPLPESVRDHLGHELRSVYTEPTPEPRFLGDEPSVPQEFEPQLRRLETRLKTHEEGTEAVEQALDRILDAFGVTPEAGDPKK
The assay is described as above.

The target of assay [7] is T7, MexAM1_META2p0735 (putative NepR homologue), bacterial two-hybrid fusion (Methylobacterium extorquens AM1) (UniProt C5B547).
T7 sequence: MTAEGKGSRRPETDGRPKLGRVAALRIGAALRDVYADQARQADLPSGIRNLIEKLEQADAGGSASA
The assay is described as above.

Assay [8] addresses T8, NepR, bacterial two-hybrid fusion (Methylobacterium extorquens AM1) (UniProt C5AW20).
T8 sequence: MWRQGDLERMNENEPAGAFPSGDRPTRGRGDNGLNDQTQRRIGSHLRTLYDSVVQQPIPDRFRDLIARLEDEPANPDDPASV
Described as above.

No constants are given. Whether binding was seen depends on the method and setting. For some assays here: Binding seen in cells or lysates may run through a third protein. Some entries that bind do so weakly or less than the wild type. Where a sequence is shown, tags or fusion partners need not be part of it.

B1: PhyR (protein, UniProt Q0PEV3 1-267)
chain: MSTAQLVVQHLPYLRRYARALTGSQVAGDAYVAATLETLVNEPETLGRSTNVKADLFRVFTRIWNSLSVNGHSDQVQHDLPAEVRLGQITPLPRQAFLLSCLEGFSEEDAGVILDVDVSKVRDLVDEAGRELAADMATEILIIEDEPLIAMDLEALVEGLGHNVIGVARTRTEAVKIASESKRPGLILADIQLADGSSGLDAVNDLLKTFEVPVIFITAYPERFLTGERPEPAFLIAKPFQPANVSAVISQALFFQQSARRREAHNA
Take B1: the binding result was “binds” in assay [1], “no binding” in assay [2], “binds” in assay [3] and “binds” in assay [4].

B2: σ^EcfG1, full-length (FL), bacterial two-hybrid fusion (protein, UniProt C5ASQ2 1-244)
chain: MRNDTEATLDRPAMTDGRPKLSDSIRSHLGDHLRSVYDTLGAGEDTPSRFSELIGKLEAALKAQGERIDPEFRNGLLSAVPSLRAFALSLTSNPARSDDLVQDTLLKGWQHRARFQPGTNLNAWLFTILRNIFYSDHRKRVREVEDQDGSYAARLATAPHQGDRLDVEDLQTALAKLPPDQREALVLVGAEGVSYEEAATIMGCKVGTVKSRVSRARGRLAELLGYDEEDLSSDRLIQSAMPDA
Consider B2, for which the binding entry in assay [5], in assay [6], in assay [7] and in assay [8] was “no binding” each time.
